Measured values taken from PubChem BioAssay AID1347417 (National Center for Advancing Translational Sciences (NCATS), 2020).
Out of some 120,000 compounds screened, about 5,300 (4.4%) were called active. The inconclusive results got no clear call from the source; some entries with a clear call stand among them for comparison. Calls follow the shape of the dose curve; as a rule, active = well fitted inhibition curve with a large enough effect; inconclusive = small, poorly fitted or top-dose-only effect; inactive = no such curve, though single readings can be large or run the other way. Potencies beside an inconclusive call are fits to weak or partial responses and may not hold up.

experiment: qHTS Primary assay for Inhibitors of Plasmodium falciparum Dd2 growth in vitro; also: nearly all actives have a fitted effect of over 65% in size; conditions: P. falciparum Dd2 growth, SYBR Green, 72 h; series mostly up to 28.9 µM
Summary of the method: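 Readout: SYBR Green fluorescence, 485 nm excitation, 535 nm emission, after ~16 h lysis at 37C. Before that, Dd2-infected red cells (2.5% hematocrit) grew 72 h with compound, 29 uM top final concentration.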
Potency is read from the fitted curve at half-maximal effect; tags tell the direction and shape of the fitted curve.

Row | Structure (SMILES) | Potency
1 | COc1cccc(-c2cc(-c3cccs3)nc3c(C)noc23)c1 | inactive
2 | O=[S+]([O-])(Nc1nncs1)c1ccc2c(c1)OCCN(Cc1nccs1)C2 | inactive
3 | Brc1ccc2c(c1)NC(c1cccnc1)=NC(c1ccccc1)=N2 | inconclusive: 17.8 µM [inhibitor, single point]
4 | O=C(NCC1Cn2cccc2CN1Cc1ccccc1)c1ccc2cc[nH]c2c1 (stereo unspecified) | inconclusive: 12.6 µM [inhibitor, single point]
5 | Cc1nn2c(=O)cc(COc3ccc(/C=C(\C#N)C(=O)Nc4ccccc4)cc3Cl)nc2s1 | inconclusive: 3.16 µM [inhibitor, partial curve]
6 | CCOc1ccccc1C1NC(=O)N(CC(=O)Nc2cccc(C(C)C)c2)C2=C1C(=O)OC2 (stereo unspecified) | inactive
7 | CCOc1ccccc1NC(=O)N1CCc2c(sc3c2CCCC3)C1c1ccccc1 (stereo unspecified) | inconclusive: 17.8 µM [inhibitor, single point]
8 | Cc1cc(NC(=O)CN2C(=O)NC3(CCCCC3)C2=O)ccc1Br | inconclusive: 1.78 µM [inhibitor, single point]
9 | Cc1ccc(CN2c3ccccc3-c3nc(SCC(=O)Nc4c(C)cc(C)cc4C)ncc3S2(=O)=O)cc1 | inconclusive: 10 µM [inhibitor, single point]
10 | O=C(Nc1ccc(Cl)cc1Cl)c1cnn2c1CN(C(=O)OCc1ccccc1)CC2 | inactive
11 | CCOc1ccccc1C(=O)N1CC(=O)Nc2ccc(C)cc2C1c1ccccc1 (stereo unspecified) | inconclusive: 14.1 µM [inhibitor, partial curve, poor fit]
12 | COCCOCC(=O)N1CCC2(CC1)CC(N(Cc1ccc(F)cc1)C1CC1)CCO2 (stereo unspecified) | inconclusive: 12.6 µM [inhibitor, partial curve, poor fit]
13 | O=C(Cc1ccc(Cl)cc1)NCc1nnc2ccc(-c3ccc(F)cc3)nn12 | inconclusive: 0.398 µM [inhibitor, partial curve, poor fit]
14 | C=CCN(C)C(=O)C[C@@H]1c2nc(NC(=O)c3ccc(C(C)(C)C)cc3)sc2C[C@@H]2[C@](C)(CO)[C@H](O)CC[C@]21C | active: 3.98 µM
15 | COc1cc2c(cc1OC)C(COc1ccc(F)cc1)N(C(=O)Cc1ccccc1)CC2 (stereo unspecified) | inconclusive: 11.2 µM [inhibitor, single point]
16 | Cc1cc(C)c(CNC(=O)c2nc(-c3ccc(CN(C)C)cc3)cc3[nH]ccc23)c(=O)[nH]1 | inconclusive: 2.51 µM [inhibitor, partial curve, poor fit]
17 | COc1cc2c(cc1OCc1ccncc1)NC(=O)C21CCN(c2ncc(F)cn2)CC1 | inconclusive: 5.62 µM [inhibitor, single point]
18 | CC(C)OCCCn1c(=O)c2ccccc2n2c(-c3cc(Cl)ccc3O)nnc12 | inconclusive: 17.8 µM [inhibitor, single point]
19 | Cc1ccsc1C(=O)NC1CCN(c2cc(C(F)(F)F)ncn2)CC1 | inconclusive: 17.8 µM [inhibitor, single point]
20 | COc1ccc(-c2cc3nc(C)c(CCC(=O)N4CCN(c5ccccc5F)CC4)c(C)n3n2)c(OC)c1 | inconclusive: 11.2 µM [inhibitor, single point]
21 | COc1ccc(-c2onc(C)c2C)cc1S(=O)(=O)Nc1cc(Cl)ccc1C | inactive

Row | Structure (SMILES) | Potency
22 | Cc1ccc(NC(=O)Cn2c(=O)oc3cc(S(=O)(=O)N4CCCCC4)ccc32)c(C)c1 | inactive
23 | Cc1cccc(N2CCN(C(=O)CCc3ccnc(N4CCCC4)c3)CC2)c1 | inconclusive: 11.2 µM [inhibitor, partial curve]
24 | CN1C[C@H]2CN(C(=O)c3cccnc3)CCN2C1=O | inactive
25 | COc1ccc(CN2CCC3(CC2)C(=O)Nc2ccccc23)cc1 | inconclusive: 10 µM [inhibitor, partial curve]
26 | O=C(CCc1cc(=O)[nH]o1)N[C@@H]1CCOC[C@H]1O | inactive
27 | CCn1ccc2sc(C)c(C(=O)N3CCN(c4ccc(F)cc4)CC3)c2c1=O | inconclusive: 1.26 µM [inhibitor, partial curve]
28 | Cc1sc2ncnc(N3CCC(NC[C@@H]4C[C@H](F)CN4)CC3)c2c1C | inactive
29 | CC1CCN(C(=O)c2ccccc2OCC2CCCN(Cc3cncs3)C2)CC1 (stereo unspecified) | inconclusive: 17.8 µM [inhibitor, single point]
30 | CN(C(=O)c1ccc(C(F)(F)F)cc1)C1CCc2ccccc21 (stereo unspecified) | inconclusive: 31.6 µM [inhibitor, partial curve, poor fit]
31 | COCC(=O)N1CC[C@H](c2nnc(-c3ccc(C)cc3)o2)C1 | inconclusive: 11.2 µM [inhibitor, partial curve, poor fit]
32 | O=C(N[C@H]1CCN2C(=O)c3ccccc3NC(=O)[C@H]12)c1cccc(F)c1 | inconclusive: 12.6 µM [inhibitor, partial curve, poor fit]
33 | CCn1c(C(=O)N2CCCC(C(=O)N3CCN(c4ccccc4)CC3)C2)cc2sccc21 (stereo unspecified) | inconclusive: 11.2 µM [inhibitor, partial curve]
34 | COc1ccc(-c2cc3nccc(-c4cc(Cl)c(C)cc4O)n3n2)cc1 | inconclusive: 1 µM [inhibitor, partial curve, poor fit]
35 | O=C1NCC2(CCN([S+](=O)([O-])c3cccc(C(F)(F)F)c3)CC2)Oc2ccccc21 | inactive
36 | NCC(=O)N1Cc2ccccc2CC12CCCN(C(=O)c1ccccc1)C2 (stereo unspecified) | active: 8.91 µM
37 | CCc1ccc(NC(=O)N2CCC(N3CCN(Cc4ccc(C)cc4)C(=O)C3=O)CC2)cc1 | inconclusive: 11.2 µM [inhibitor, single point]
38 | Cc1noc2nc(C(C)C)cc(C(=O)NC3CCCc4c3[nH]c3c(Cl)cccc43)c12 (stereo unspecified) | inconclusive: 10 µM [inhibitor, partial curve]
39 | Cc1noc(-c2ccn3c(CNC(=O)COc4ccc(F)cc4)nnc3c2)n1 | inactive
40 | CC(C)NC(=O)C1COC2(CCN(C(=O)c3ccc(F)cc3)CC2)N1C(=O)c1ccccc1 (stereo unspecified) | inactive
41 | O=S(=O)(c1ccc2nc(Nc3cccc(F)c3)ccc2c1)N1CCCC1 | inactive
